Data reported in PMC5892938.
The list shows a part of the results. The source does not settle which construct or isoform was used.

Target: GST-SBP-ILF3 (Homo sapiens) (UniProt Q12906)
Assay: targeted RNA Bind-n-Seq
Conditions: RBNS binding buffer: 25 mM Tris pH 7.5, 150 mM KCl, 3 mM MgCl2, 0.1% Tween, 0.5 mg/mL BSA, 1 mM DTT; 27 nM protein, 750 pM RNA pool; temperature not stated; high values mean tight binding; sequences stand for … in GGGUAAAAGCGAGGUGAA…CGGGACAAGUAUUAUGGG

| Sequence | binding signal (log2 fold change) |
| --- | --- |
| UUUUUUUUUUGAGAUGGGACCCAUCUCCUA [tttttgagapaired] | 0.47 |
| GUGUGUUGUGUUGGCCCCUAACACAACGCA [gtspaired] | -0.0487 |
| GGUGUUGGUGUUGGACCCUAACACCGACGC [gtspaired] | -0.235 |
| UUUUUUUUUUGAGAGGGCUUCCCUCUCCUA [tttttgagapaired] | 0.273 |
| GUGUGGUGUGUUGGACCCUAACACACUACG [gtspaired] | -0.312 |
| UUUUUUUUUUGAGAUGGGAACUAUCUCCAG [tttttgagapaired] | 0.269 |
| GUGUGGUGUGUUGGAAUCUAACACACUACG [gtspaired] | -0.431 |
| GGUGUGUGUGUUGGUGUCUAACACAUACGC [gtspaired] | -0.765 |
| GUUGUGUGUGUUGGAGCCUAACACACGCGA [gtspaired] | -0.393 |
| UUUUUUUUUUGAGAGGGAUGCCCUCUUCUG [tttttgagapaired] | 0.436 |
| GGUGGUUGUGUUGGCGUCUAACACAGCUAC [gtspaired] | -0.486 |
| UUUUUUUUUUGAGACGGUAACCGUUUCCAG [tttttgagapaired] | 0.631 |
| GUGUGUUGUGUUGGCACCUAACACAGCGCA [gtspaired] | -0.567 |
| GGUUGUGGUGUUGGUCUCUAACACCAUAAC [gtspaired] | -0.735 |
| UUUUUUUUUUGAGAUGGUGUCUAUCUCCAG [tttttgagapaired] | 0.64 |
| GUGUGUGGUGUUGGUCUCUAACACCAUACG [gtspaired] | -0.804 |
| GUGGUGUGUGUUGGCGUCUAACACAUACUA [gtspaired] | -0.692 |
| UUUUUUUUUUGAGACGGAAUCCGUUUCCUA [tttttgagapaired] | 0.0765 |
| UUUUUUUUUUGAGAGCGGUGCGCUCUCCAG [tttttgagapaired] | 0.122 |
| UUUUUUUUUUGAGACGGUAGCCGUUUCCAG [tttttgagapaired] | 0.639 |
| GUGGUUGGUGUUGGCCUCUAACACCGACCA [gtspaired] | -0.698 |
| GUGGUGUGUGUUGGCCCCUAACACACAUCG [gtspaired] | -0.383 |
| UUUUUUUUUUGAGAUGGGAACCAUUUCCAG [tttttgagapaired] | 0.385 |
| UUUUUUUUUUGAGACCGGAUCGGUCUUCUG [tttttgagapaired] | 0.562 |
| UUUUUUUUUUGAGAUCGAGCCGAUCUCCUA [tttttgagapaired] | 0.127 |
| UUUUUUUUUUGAGAGGGAUCCCCUCUCCUA [tttttgagapaired] | 0.263 |

| Sequence | binding signal (log2 fold change) |
| --- | --- |
| UUUUUUUUUUGAGACGGAAUCCGUCUUCUG [tttttgagapaired] | 0.323 |
| GUGUGUUGUGUUGGAUCCUAACACAGCACG [gtspaired] | -0.87 |
| GGUUGGUGUGUUGGCGUCUAACACAUCGAC [gtspaired] | -0.713 |
| GUGUUGUGUGUUGGAUUCUAACACACAGCG [gtspaired] | -0.628 |
| UUUUUUUUUUGAGAUGGAAUCCGUCUCCGG [tttttgagapaired] | 0.174 |
| GUGUGGUGUGUUGGAAUCUAACACACCGCG [gtspaired] | -0.192 |
| GUGUUGUGUGUUGGUCUCUAACACACAGCG [gtspaired] | -0.826 |
| UUUUUUUUUUGAGACGGAGGCUGUCUUCUA [tttttgagapaired] | 0.915 |
| UUUUUUUUUUGAGACGGACGCCGUCUCCUA [tttttgagapaired] | 0.557 |
| UUUUUUUUUUGAGAGCGAACCGUUCUCCUA [tttttgagapaired] | 0.148 |
| UUUUUUUUUUGAGAUCGAUACGAUCUCCGG [tttttgagapaired] | 0.0424 |
| GUGGUUGGUGUUGGACUCUAACACCAAUCA [gtspaired] | -0.581 |
| GGUUGUGGUGUUGGCGUCUAACACCGCAGC [gtspaired] | -0.447 |
| UUUUUUUUUUGAGACCGACUCGGUCUUCUG [tttttgagapaired] | 0.636 |
| GUGUGGUGUGUUGGUCUCUAACACAUCGCA [gtspaired] | -0.895 |
| UUUUUUUUUUGAGACUGUCUCAGUCUCCUA [tttttgagapaired] | 0.465 |
| UUUUUUUUUUGAGAGGGACACCCUCUCCUG [tttttgagapaired] | 0.536 |
| UUUUUUUUUUGAGACCGUGACGGUCUUCUA [tttttgagapaired] | 0.553 |
| UUUUUUUUUUGAGACCGCAUCGGUCUCCUG [tttttgagapaired] | 0.543 |
| UUUUUUUUUUGAGACUGGACCAGUCUUCUA [tttttgagapaired] | 0.473 |
| GUGUGUGGUGUUGGUACCUAACACCAUACG [gtspaired] | -0.719 |
| UUUUUUUUUUGAGAUCGAAGCGAUCUCCAG [tttttgagapaired] | 0.279 |
| GUGUGUGGUGUUGGCACCUAACACCGCACG [gtspaired] | -0.68 |
| UUUUUUUUUUGAGAUGGCUCCCAUCUCCAG [tttttgagapaired] | 0.697 |
| UUUUUUUUUUGAGACGGACGCCGUUUCCAG [tttttgagapaired] | 0.534 |
| UUUUUUUUUUGAGAGCGUACCGCUCUCCUG [tttttgagapaired] | 0.734 |

| Sequence | binding signal (log2 fold change) |
| --- | --- |
| UUUUUUUUUUGAGAGCGUGCCGCUCUUCUA [tttttgagapaired] | 0.671 |
| UUUUUUUUUUGAGAUCGUAGCGAUCUCCUG [tttttgagapaired] | 0.453 |
| UUUUUUUUUUGAGAUGGUGCCCAUCUCCAG [tttttgagapaired] | 0.506 |
| UUUUUUUUUUGAGAUGGGGACCAUUUCCAG [tttttgagapaired] | 0.659 |
| GUGUGUUGUGUUGGUACCUAACACAGCGCG [gtspaired] | -0.59 |
| UUUUUUUUUUGAGAUGGUGGCCAUCUUCUG [tttttgagapaired] | 0.862 |
| UUUUUUUUUUGAGACCGAGACGGUCUCCAG [tttttgagapaired] | 0.414 |
| UUUUUUUUUUGAGACGGGAGCCGUCUCCAG [tttttgagapaired] | 0.606 |
| UUUUUUUUUUGAGACGGUGUCCGUCUCCAG [tttttgagapaired] | 0.799 |
| GUGUUGUGUGUUGGCUUCUAACACACAACG [gtspaired] | -0.809 |
| UUUUUUUUUUGAGACGGACACUGUCUCCAG [tttttgagapaired] | 0.866 |
| UUUUUUUUUUGAGAGCGAUGCGUUCUCCGG [tttttgagapaired] | 0.272 |
| GUUGUGUGUGUUGGUCUCUAACACACGCGA [gtspaired] | -0.586 |
| UUUUUUUUUUGAGAUGGAUUCCAUCUCCUA [tttttgagapaired] | -0.178 |
| UUUUUUUUUUGAGAUGGUUUCCGUCUCCAG [tttttgagapaired] | 0.634 |
| GGUGGUUGUGUUGGACCCUAACACAGCUAC [gtspaired] | -0.442 |
| UUUUUUUUUUGAGAACGUAGCGUUCUUCUG [tttttgagapaired] | 0.378 |
| UUUUUUUUUUGAGAGGGCUACCCUCUUCUA [tttttgagapaired] | 0.738 |
| GUGUUGUGUGUUGGAAUCUAACACACAGCG [gtspaired] | -0.337 |
| UUUUUUUUUUGAGACGGCCGCCGUCUCCAG [tttttgagapaired] | 0.93 |
| UUUUUUUUUUGAGACUGAGUCAGUUUCCGG [tttttgagapaired] | 0.533 |
| UUUUUUUUUUGAGACGGAUUCCGUCUCCUA [tttttgagapaired] | 0.272 |
| UUUUUUUUUUGAGACUGCGUCAGUCUCCAG [tttttgagapaired] | 0.716 |
| UUUUUUUUUUGAGACGGAGUCCGUUUCCUA [tttttgagapaired] | 0.288 |
| UUCCUCUCUCCUCCAGUGGAGGGGGGAGGA [ctspaired] | -0.224 |
| UUUUUUUUUUGAGACUGGGUCAGUCUUCUA [tttttgagapaired] | 0.395 |

| Sequence | binding signal (log2 fold change) |
| --- | --- |
| UUUUUUUUUUGAGAUCGAAACGGUCUCCUA [tttttgagapaired] | 0.0607 |
| UUUUUUUUUUGAGAGUGCUACAUUCUCCAG [tttttgagapaired] | 0.0988 |
| UUCUCUCUUCCUCCGGGGGAGGAGGGGAGA [ctspaired] | -0.468 |
| GGUGUGUGUGUUGGUUCCUAACACACGCGC [gtspaired] | -0.529 |
| UUUUUUUUUUGAGACCGGAUCGGUUUCCUG [tttttgagapaired] | 0.867 |
| UUUUUUUUUUGAGACCGUCACGGUCUCCAG [tttttgagapaired] | 0.406 |
| UUUUUUUUUUGAGAGCGGAGCGCUCUCCUG [tttttgagapaired] | 0.495 |
| UUUUUUUUUUGAGAGGGCAGCCCUCUCCUA [tttttgagapaired] | 1.09 |
| GUGUGUUGUGUUGGCGUCUAACACAACGCA [gtspaired] | -0.405 |
| GUGGUGUGUGUUGGUGUCUAACACAUACUA [gtspaired] | -0.631 |
| UUUUUUUUUUGAGAGGGUGACCCUCUUCUG [tttttgagapaired] | 0.249 |
| GGUGUGUGUGUUGGCGUCUAACACAUACGC [gtspaired] | -0.689 |
| GUUGGUGGUGUUGGACUCUAACACCGCCGA [gtspaired] | -0.325 |
| UUUUUUUUUUGAGACCGGCACGGUCUUCUG [tttttgagapaired] | 0.445 |
| UUUUUUUUUUGAGACUGACUCAGUCUCCUA [tttttgagapaired] | 0.107 |
| GGUGGUUGUGUUGGCGUCUAACACAAUCGC [gtspaired] | -0.409 |
| UUUUUUUUUUGAGAGGGAUCCCUUCUCCGG [tttttgagapaired] | -0.128 |
| UUUUUUUUUUGAGAUGGUGGCCAUCUUCUA [tttttgagapaired] | 0.567 |
| UUUUUUUUUUGAGACCGUAACGGUCUCCUA [tttttgagapaired] | 0.264 |
| UUUUUUUUUUGAGACGGGGGCCGUUUCCGG [tttttgagapaired] | 1.02 |
| UUUUUUUUUUGAGACGGCCGCCGUCUUCUA [tttttgagapaired] | 0.785 |
| UUUUUUUUUUGAGAUCGAACCGAUCUCCGG [tttttgagapaired] | -0.0229 |
| GUGUUGUGUGUUGGAUUCUAACACACAGCA [gtspaired] | -0.78 |
| UUUUUUUUUUGAGACUGUAACAGUCUUCUG [tttttgagapaired] | 0.461 |
| UUUUUUUUUUGAGAUGGCGUCCAUCUCCAG [tttttgagapaired] | 0.717 |
